This is an account of results in the RNAGym collection of RNA variant scans (doi:10.1093/nar/gkz1192).

The chains are these.
B1: CPEB3 Ribozyme (parent)
chain: UAACAGGGGGCCACAGCAGAAGCGUUCACGUCGCAGCCCCUGUCAGAUUCUGGUGAAUCUGCGAAUUCUGCUGUAUAUCUC

The source gives no read counts; variants with many changes may rest on few reads.

Variants of B1 are the subject of this data set. Nature of the data set: self-cleavage, relative activity (ratio to wild type); higher = more cleavage; in vitro, sequencing. The procedure, abridged: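 Barcoded CPEB3 ribozyme mutants, produced by rounds of error-prone PCR, self-cleaved while being transcribed with T7 RNA polymerase for 5 hours at 37°C and during a subsequent 15 min DNase I step before EDTA was added. Sequencing of template-switched cDNA on Illumina gave cleaved and total reads, and DNA sequencing assigned barcodes to variants. Each variant's relative activity is its cleaved/total read fraction divided by the unmutated ribozyme's fraction, averaged across three batches. A variant needed a minimum of 5 reads.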
As for UAACAGGGUGCCACAGCAGAAGCGUCCACGUCGCAGCCCCUGUCAGGUUCUGGUGAAUCUGCGAAUUCUGCUGUAAAUCUC, the self-cleavage was 0.21. The same measure for UAACAGGGUGCCACAGCAGAAGCGCUCACGUCGCAGCCCCUGUCAGAUUCUGGUGUAUCUGCGAAUUCUGCUGUAUAUCUC: 0.06.

On to UAACAGGGUGCCACAGCAGAAGCGUUCACGCCGCAGCCCCUGUCAGAUCCUUGUGAAUCUGCGAUUUCAGCUGUAUAUCUC, for which the self-cleavage worked out at 0.04. The result for UAACAGGGUGCCACAGCAGAAGCGAUCACGUCGCAGCCCCUGUCAGAUUCUGGUGAAUCUGCGAAUUCUGCCGUAUAUCUC reads 0.07; that for UAACAGGGUGCCACAGCAGAAGCGUUCACGUCGCAGCCCCUGCCAGAUUCUGGUGAAUCUGCGGAUUCUGCUGUAUAUCUC, 0.06; that for UAACAGGGUGCCACAGCAGAAGCGUUCACGUCGCAGCCCCUGACAGUUUCAGGUGAAUCUGCGAAUUCUGCUGUAUAUCUC, 0.14. The result for UAACAGGGUGCCACAGCAGAAGCGUCCACGUCGCAGCCCCUGCCAGGUUCUGGUGAAUCUACGUAUUCUGCUGUAUAUCUC reads 0.05; that for UAACAGGGUGCCACAGCAGAAGCGUUCACGUCGCAGCCCCUGACAGAUUCUGGUGAAUCUGCGAAUUCCGCUGUAUACCUC, 0.07. In the case of UAACAGGGUGCCACAGCAGAAGCGAUCACGUCGCAGCCCCUGUCAGAUUCUGGUGAAUCUGCGAACUCCGCUGUAUAUCUC, the self-cleavage came out at 0.05. For UAACAGGGUGCCACAGCAGAAGCGUGCACGCCGCAGCCCCUGUCAGAUUCUGGUGAAUCUGCGAAUUCUGCUGUAUAUCUC, the self-cleavage is 0.14. The result for UAACAGGGUGCCACAGCAGAAGCGUCCACGUCGCAGUCCCUGUCAGAUUCGGGUGAAUCUGCGAAUUCUGCUGUAUAUCUC reads 0.15; that for UAACAGGGUGCCACAGCAGAAGCGAUCACGUCGCAGCCCCCGUCAGAUUCCGGUGGAUCUGCGAGUCCUGCUGUAUAUCUC, 0.03; that for UAACAGGGUGCCACAGCAGAAGCGUUCACGUCGCAGCCCCUGCCAGAUUCUGGUGAAUCUGCGAAUUCUGCCGUAUAUCUC, 0.39. Regarding UAACAGGGUGCCACAGCAGAAGCGUCCACGACGCAGCCCCUGUCAGAUUCUGGUGAAUCUGCGAAUUCUGCUGUAUAUCUC, the self-cleavage was determined as 0.05. The result for UAACAGGGUGCCACAGCAGAAGCGUUCACGUCGCAGCCCCAGUCUGAUUCUGGUGAAUCUGCGAAUUCUGCUGUAUAUCUC reads 0.04.

UAACAGGGUGCCACAGCAGAAGCGUUCACGUCGCAGCCCCCGUCAGAUUCUGGAGAAUCUGCGAAUACUGCUGCAUAUCUC: the self-cleavage was found to be 0.06. The same measure for UAACAGGGUGCCACAGCAGAAGCGUUCACGUCGCAGCCCCCGUCAGACUCUGGUGGAUCUGCGAAUUCUGCUGUAUUUCUC: 0.17; for UAACAGGGUGCCACAGCAGAAGCGUUCACGUCGCAGCCCCAGUCAGAUUCUGGUGGAUCUGCGAAUUCUGCUGUAUAUCUC: 0.17. The result for UAACAGGGUGCCACAGCAGAAGCGGUCACGUCGCAGCCCCUGUCAGUUUCUGGUGGAUCUGCGAAUUCUGCUGUAUAUCAC reads 0.06; that for UAACAGGGUGCCACAGCAGAAGCGCUCACGUCGCAGCCCCUGUCAGAUUCUGGUGAAUCUGCGAAUUCAGCCGUAUAUCUC, 0.06; that for UAACAGGGUGCCACAGCAGAAGCGUUCACGCCGCAGCCCCUGUCAGAUUCCGGUGAAUCUGCGAAUCCUGCUGUAUAUCUC, 0.08. The result for UAACAGGGUGCCACAGCAGAAGCGCUCGCGUCGUAGCCCCUGUCAGAUUCUGGCGAAUCUGCGAAUUCUGCUGUAUAUCUC reads 0.14; that for UAACAGGGUGCCACAGCAGAAGCGUUCACGUCGCAGCCCCUGACGGAUUCUGGUGAAUCUGCGAAUCCUGCUGUAUGUCUC, 0.09. With UAACAGGGUGCCACAGCAGAAGCGUUCACGUCGCAGCCCCCGUCAGAUUCUGGUGAAUCUGCGAAUUCUACUGUAUAUCUC, the self-cleavage is 0.06. On to UAACAGGGUGCCACAGCAGAAGCGUUCACGUCGCAGCCCCCGUCAGAUUCAGGUGAAUCUGCGAAUUCUGCUGUAUAUCUC, for which the self-cleavage is 0.12. The result for UAACAGGGUGCCACAGCAGAAGCGUUCACGUCGCAGCCCCGGUCAGAAUCUGGUGGAUCUGCGAUUUCUGCUGUAUACCUC reads 0.08. The same measure for UAACAGGGUGCCACAGCAGAAGCGUCCACGUCGCAGCCCCUGUCAGACUCUGGUGAAUCUGCUAAUUCUGCUGUAUGUCUC: 0.05. The result for UAACAGGGUGCCACAGCAGAAGCGUUCACGUCGCAGCCCCCGUCAGAUUCUCGUGAAUCUGCGAAUUCUGCUGUAUAUCUC reads 0.36; that for UAACAGGGUGCCACAGCAGAAGCGCUCACGUCGCAGCCACUGUCAGAUUCUGGUGAAUCUGCGAAUUCUGCUGUAUAUCUC, 0.07. Turning to UAACAGGGUGCCACAGCAGAAGCGUUCACGUCGCAGCCCCUGCCAUAUUCUGGUGAAUCUGCGAAUUCAGCUGUAUAUCUC, the self-cleavage worked out at 0.04.

As for UAACAGGGUGCCACAGCAGAAGCGAUCACGUCGCAGCCCCGGUCAGAUUCUUGUGAAUCUGCGAAAUCUGCUGUAUAUCUC, the self-cleavage was 0.05. The same measure for UAACAGGGUGCCACAGCAGAAGCGUUCACGCCGCAGCCCCUGUCGGAUUCUGGUGAAUCUGCGAAUUCUGCUGCAUAUCUC: 0.26; for UAACAGGGUGCCACAGCAGAAGCGUUCACGCCGCUGCCCCUGUCAGAUUCUGGUGAAUCUGCGUAUUCUGCAGUAUAUCUC: 0.03. The result for UAACAGGGUGCCACAGCAGAAGCGUUCACGUCGCAGCCCCCGCCAGAUUCUGGUGAAUCUGCGAAUACUGCUGUAUAUCUC reads 0.15.
